# Assay results: PubChem BioAssay AID686970 (National Center for Advancing Translational Sciences (NCATS), 2013)
# In all, about 360,000 compounds went through this assay and about 6,000 (1.7%) were called active. The inconclusive results got no clear call from the source; some entries with a clear call stand among them for comparison. Calls come from the whole dose curve; as a rule, active = well fitted cell-killing curve with a large enough effect; inconclusive = small, poorly fitted or top-dose-only effect, or effect the other way; inactive = flat fitted curve, though single readings scatter. No potency is given beside an inconclusive call; the fits are too rough.
# Assay: qHTS for induction of synthetic lethality in tumor cells producing 2HG: qHTS for the HT-1080-NT fibrosarcoma cell line;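 note: NT is the 2HG producing partner of a matched IDH1 knockdown line; nearly all actives have a fitted effect of over 55% in size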;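 for activity, negative = less viability: 0% = DMSO-treated cells and -100% = media-only wells without cells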
# Conditions: HT-1080-NT fibrosarcoma viability, CellTiter-Glo ATP luminescence, 48 h; activity, negative = less viability: at 46.1 µM (top of the series) unless noted
# Summary of the method: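 Toxicity toward the 2HG-producing NT line was scored as %Activity, normalised to DMSO and no-cell wells, from CellTiter-Glo luminescence after 48 hours' treatment.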
# Potency is the fitted concentration of half-maximal effect; tags give direction and shape of the fitted curve.
SMILES,"activity, negative = less viability",Potency
CCc1nc2ccc(C(=O)NCCN3CCNC3=O)cn2c1N(CCC(C)C)CCN(C)C,inactive: 8.42%,–
CC(CC(=O)Nc1ccc2c(c1)c(=O)n(C)n2Cc1ccc(Cl)cc1)C(F)(F)F (centres undefined),inactive: -11.3%,–
CCC(C)(C)n1nnnc1C(c1cc2ccc(OC)cc2[nH]c1=O)N1CCc2ccccc21 (centres undefined),–,"inconclusive [cytotoxic, single point]"
Cc1ccc(Sc2ccc([N+](=O)[O-])cc2[N+](=O)[O-])nc1,–,active: 16.4 µM
COc1ccc(S(=O)(=O)N(C)C[C@@H]2OCCCC[C@@H](C)Oc3ccc(NS(=O)(=O)c4cccs4)cc3C(=O)N([C@H](C)CO)C[C@@H]2C)cc1,inactive: -6.38%,–
CN(CC(=O)Nc1c(Cl)cccc1Cl)C(=O)Cc1cccs1,inactive: 1.02%,–
CC(=O)c1ccc(N2CCN(C(=O)CCS(=O)(=O)c3ccc4c(c3)NC(=O)CS4)CC2)cc1,inactive: -3.99%,–
Cc1cccc(N/N=C/c2ccccc2O)c1,–,"inconclusive [cytotoxic, partial curve]"
COc1ccc(CCNC(N)=S)cc1OC,inactive: -0.841%,–
O=C(Nc1cc(S(=O)(=O)N2CCOCC2)ccc1N1CCCC1)C1COc2ccccc2O1 (centres undefined),inactive: 0.898%,–
Cc1cc(-c2c(C)[nH]n(-c3ccc(Cl)cc3)c2=O)n[nH]1,–,"inconclusive [cytotoxic, single point]"
COc1cccc(/C=N/NC(=O)c2nc(-c3ccccc3)cc(-c3ccccc3)n2)c1O,–,"inconclusive [cytotoxic, partial curve]"
O=C1Nc2cc(C(=O)NCCCN3CCCC3)ccc2S/C1=C/c1ccccc1F,inactive: 7.7%,–
CCc1ccccc1N(C(=O)c1snc(C(N)=O)c1N)C(C(=O)NCC1CCCO1)c1c[nH]c2ccccc12 (centres undefined),–,"inconclusive [cytotoxic, partial curve]"
O=C(c1ccccc1F)N1CCN(CC2CC3C=CC2C3)CC1 (centres undefined),–,"inconclusive [rising, partial curve]"
COc1ccccc1CNC(=O)CN1C(=O)NC(c2ccccc2)(c2ccc(C)c(C)c2)C1=O (centres undefined),–,"inconclusive [cytotoxic, single point]"
COc1ccc2nc(S(=O)Cc3ncc(C)c(OC)c3C)[nH]c2c1 (centres undefined),inactive: -24.9%,–
CCOC(=O)c1cnc(SCC(=O)Nc2cc(C(F)(F)F)ccc2N2CCOCC2)nc1N,–,"inconclusive [cytotoxic, partial curve]"
Nc1nonc1C(=O)NCCNCc1ccccc1OCc1ccc(F)cc1,–,"inconclusive [cytotoxic, single point]"
CC(C)C[C@@H](COCc1cccc(Cl)c1)N1CCN(C(=O)c2ccc(C(F)(F)F)cc2)CCC1=O,–,"inconclusive [cytotoxic, single point]"
Cc1csc(NC(=O)c2ccccc2)n1,inactive: -23%,–
CN(C)c1ccc(-c2csc(C(O)(c3ccccc3)C(F)(F)F)n2)cc1 (centres undefined),–,"inconclusive [cytotoxic, single point]"
COc1cc(C(O)c2nc(-c3cc4ccccc4o3)cs2)ccc1F (centres undefined),–,"inconclusive [cytotoxic, single point]"

SMILES,"activity, negative = less viability",Potency
CC(=O)Nc1cncc(-c2cccc(S(C)(=O)=O)c2)n1,–,"inconclusive [rising, single point]"
O=C(CCc1ccccc1)NNc1ccc(F)cc1,–,"inconclusive [cytotoxic, partial curve]"
CC1(Cc2ccc(OC(F)(F)F)cc2)C(=O)Nc2ccc(S(=O)(=O)NC3CCCCC3)cc21 (centres undefined),–,active: 13 µM
Cc1ccc(NC(=O)CCC(=O)N/N=C/c2ccccc2O)cc1,–,"inconclusive [cytotoxic, single point]"
CCc1ccc(C(=O)NNc2ccc(Cl)cc2)cc1,–,"inconclusive [cytotoxic, partial curve, poor fit]"
COc1ccc(S(=O)(=O)N2CC3C4C=CC(C4)C3C2)cc1 (centres undefined),inactive: 0%,–
COC(=O)c1cc(C)nc2c1C(=O)C(=O)C=C2N1CCOCC1,–,active: 6.51 µM
C[C@H](CO)N1C[C@H](C)[C@@H](CN(C)C(=O)Nc2ccc(C(F)(F)F)cc2)Oc2ccc(NS(=O)(=O)c3ccccc3)cc2C1=O,inactive: -13.8%,–
Cc1cc(NC(=O)CN2CCCC2c2nc3ccccc3s2)no1 (centres undefined),–,"inconclusive [rising, full curve, poor fit]"
CCN(CC(=O)Nc1ccccc1C(F)(F)F)C(=O)c1ccc(-n2nc(C)c(CCC(=O)OC)c2C)cc1,inactive: -0.372%,–
COc1ccc(C(=O)Nc2nnc(-c3ccc(F)cc3)s2)c(OC)c1,–,"inconclusive [rising, single point]"
O=c1oc2ccccc2nc1/C=C(O)/C=C\c1ccccc1,inactive: -0.267%,–
CCCCN(CCCC)CP(=O)(c1ccccc1)c1ccccc1,–,"inconclusive [cytotoxic, single point]"
COc1ccc(S(=O)(=O)n2cnc3cc(C)c(C)cc32)cc1C,–,"inconclusive [cytotoxic, single point]"
CC(=O)c1ccc(OCCCC(=O)NCCc2ccccc2)cc1,inactive: 11.9%,–
CN(C)c1ccc(CNC(=O)C2(C)Cc3c(-c4ccc(N(C)C)cc4)ccnc3O2)cc1 (centres undefined),–,"inconclusive [cytotoxic, single point]"
Cc1ccc(OCC(=O)N/N=C/c2cn[nH]c2-c2ccc(Cl)c(Cl)c2)cc1,–,"inconclusive [cytotoxic, single point]"
O=C1C(Cl)=C(NCCc2ccccc2)C(=O)N1CCc1ccccc1,inactive: -0.669%,–
N#CCC(=O)N/N=C/c1cc(Br)ccc1OCc1cccc2ccccc12,inactive: -3.03%,–
COCCCN1C(=O)c2ccccc2C1C(=O)NC1CCCCCC1 (centres undefined),inactive: 7.79%,–
Cc1cc(Br)cn2c(Cc3ccccc3)c(-c3ccco3)nc12,–,"inconclusive [cytotoxic, single point]"
Nc1cc2sc(-c3ccc(C(=O)O)cc3)nc2cc1Cl,–,"inconclusive [cytotoxic, single point]"
Brc1ccc2nc(N3CCN(c4ccccc4)CC3)sc2c1,–,"inconclusive [rising, partial curve]"

SMILES,"activity, negative = less viability",Potency
COc1ccc(/C(=N/Nc2ncnc3ccccc23)C(=O)O)cc1,–,active: 23.1 µM
CC(=O)NCCNc1nc2cc(-c3cccc(C(F)(F)F)c3)sc2c(=O)n1C,–,"inconclusive [cytotoxic, partial curve, poor fit]"
C=CCNc1nnc(SC2CC(=O)N(c3ccc(OC)cc3)C2=O)s1 (centres undefined),–,"inconclusive [cytotoxic, single point]"
CCCCCCCCCCOC(=O)Cn1c(COc2cccc(C)c2)[n+](C)c2ccccc21,–,"inconclusive [cytotoxic, single point]"
OC(c1ccc(Cl)c(Cl)c1)c1ncc(-c2ccccc2Cl)[nH]1 (centres undefined),–,"inconclusive [cytotoxic, single point]"
CCCCCCn1c(=O)n2n(c1=O)C[C@]1(OC(=O)NC3CCCC3)CN(S(=O)(=O)c3ccc(C)cc3)C[C@]1(O)C2,–,"inconclusive [cytotoxic, single point]"
COc1cccc(NC(=O)CSc2nnc(-c3cc(C)n(-c4ccccc4)c3C)o2)c1,inconclusive: -34.1% [cytotoxic],–
Cc1ccccc1N1C(=O)C(Oc2ccc(Cl)cc2)C1CNCCCOC(C)C (centres undefined),–,active: 16.4 µM
COC(=O)c1sc(S(=O)(=O)N2CCC(C(N)=O)CC2)c(C(=O)OC)c1C,inactive: -0.809%,–
FC(F)(F)c1nc(-c2cccs2)ncc1-c1nnnn1-c1ccc(Cl)cc1,–,"inconclusive [cytotoxic, partial curve]"
Cc1ccc(C(=O)N/C(=C\c2cn(S(=O)(=O)N(C)C)c3ccccc23)C(=O)NCCCN2CCOCC2)cc1,inactive: -29.9%,–
COc1ccc(NC(=O)C(c2ccc(OC)cc2)N(C)C(=O)c2cnccn2)cc1 (centres undefined),inconclusive: 32.2%,–
O=C(COC(=O)c1cc(=O)[nH]c(=O)[nH]1)Nc1cccc(Cl)c1,inactive: 2.25%,–
O=C(C[C@H]1C[C@H](C(=O)N2CCOCC2)[C@@]2(CCC3CCCC3)c3[nH]c4cc(-c5ccco5)ccc4c3CCN2C1=O)NCCCn1ccnc1,–,"inconclusive [cytotoxic, single point]"
CCc1nc2c(OCc3cc(Cl)cc(Cl)c3)cccn2c1N(C)C(=O)c1ccc(C)cc1,–,"inconclusive [cytotoxic, single point]"
CCN(CC)CCNc1nc(C(F)(F)F)nc2c1nnn2Cc1ccccc1,–,"inconclusive [cytotoxic, single point]"
COc1ccc(NC(=S)N/N=C/c2ccc(F)c(F)c2)cc1,–,"inconclusive [cytotoxic, single point]"
Fc1ccc(CNC(=S)Nc2cccc(Cl)c2)cc1,–,"inconclusive [cytotoxic, single point]"
O=C(CN(Cc1ccccc1F)S(=O)(=O)c1ccc(Cl)cc1)NCCC1=CCCCC1,–,"inconclusive [cytotoxic, single point]"
Cc1ccc(S(=O)(=O)N2CCCC2C(=O)NCc2ccc3c(c2)OCO3)cc1 (centres undefined),inactive: -0.739%,–
C=CCNC(=O)/C(C#N)=C/c1c(C)nn(-c2ccc(Cl)cc2)c1Cl,–,"inconclusive [cytotoxic, single point]"
CC(=O)c1ccc(NC(=S)NNC(=O)c2ccccc2[N+](=O)[O-])cc1,–,"inconclusive [rising, partial curve]"
O=C(NC(c1ccc(Cl)cc1)c1cnccn1)C1CCN(CCOc2ccc(F)cc2)CC1 (centres undefined),–,"inconclusive [cytotoxic, single point]"
